According to PMC4471680:
Results are given in words; binding and its absence hold for the method and conditions named. For part of these data: Binding seen in cells or lysates may run through a third protein. Some entries that bind do so weakly or less than the wild type.

By UniProt entry, the sequences of proteins in these tests, tags left out. Residues count along the entry.
UniProt P08246, residues 30-267: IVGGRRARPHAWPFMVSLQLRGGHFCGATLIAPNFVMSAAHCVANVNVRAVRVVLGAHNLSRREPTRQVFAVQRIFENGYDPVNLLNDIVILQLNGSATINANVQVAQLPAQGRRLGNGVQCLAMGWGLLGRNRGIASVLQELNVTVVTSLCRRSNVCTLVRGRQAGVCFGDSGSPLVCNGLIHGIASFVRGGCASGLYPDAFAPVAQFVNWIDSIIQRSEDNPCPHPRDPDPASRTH

Tests used:
[1] = molecular target: neutrophil elastase (human (endogenous in neutrophils)) (UniProt P08246); test: co-IP; cytoplasmic lysate (LSS) of control human neutrophils activated with PMA for 60 min; anti-NE antibody; immunoblotting against CG, AZU, MPO
[2] = molecular target: neutrophil elastase (human (endogenous in neutrophils)) (UniProt P08246); test: co-IP; azurophilic granules of control human neutrophils, untreated (also with HOCl), solubilized with 0.1% NP-40; rabbit anti-NE antibody or mock antibody (anti-MMP9, anti-BPI), Protein-G resin, 4°C; washes with GPB and GPB + 0.5 U/ml heparin; Coomassie staining or immunoblotting
[3] = molecular target: neutrophil elastase (human (endogenous in neutrophils)) (UniProt P08246); test: SEC; unactivated azurophilic granules permeabilized with 0.1% NP-40, Superdex 200 GL, 20 mM HEPES pH 7.4, 100 mM NaCl, 0.5 U/ml heparin; fractions probed for NE and MPO; proteins of the complex detected by mass spectrometry
[4] = molecular target: neutrophil elastase (human (endogenous in neutrophils)) (UniProt P08246); test: co-IP; as a1, but intact azurophilic granules treated with 100 μM H2O2 for 2 hr at 37°C before solubilization (also with protease inhibitors or ABAH); anti-NE antibody; immunoblotting against MPO, CG, AZU, LYZ
[5] = molecular target: neutrophil elastase (human (endogenous in neutrophils)) (UniProt P08246); test: condition: only granules treated with 100 μM H2O2 before solubilization; co-IP; as a1, but intact azurophilic granules treated with 100 μM H2O2 for 2 hr at 37°C before solubilization (also with protease inhibitors or ABAH); anti-NE antibody; immunoblotting against MPO, CG, AZU, LYZ

B1: cathepsin G (enzyme, UniProt P08311 21-244)
chain: IIGGRESRPHSRPYMAYLQIQSPAGQSRCGGFLVREDFVLTAAHCWGSNINVTLGAHNIQRRENTQQHITARRAIRHPQYNQRTIQNDIMLLQLSRRVRRNRNVNPVALPRAQEGLRPGTLCTVAGWGRVSMRRGTDTLREVQLRVQRDRQCLRIFGSYDPRRQICVGDRRERKAAFKGDSGGPLLCNNVAHGIVSYGKSSGVPPEVFTRVSSFLPWIRTTMRS
B1 was tested, and the binding [1] was “binds”, the binding [2] was “binds” and the binding [3] was “binds”. The binding [4] was “binds”.

B2: azurocidin (protein, UniProt P20160 27-251)
chain: IVGGRKARPRQFPFLASIQNQGRHFCGGALIHARFVMTAASCFQSQNPGVSTVVLGAYDLRRRERQSRQTFSISSMSENGYDPQQNLNDLMLLQLDREANLTSSVTILPLPLQNATVEAGTRCQVAGWGSQRSGGRLSRFPRFVNVTVTPEDQCRPNNVCTGVLTRRGGICNGDGGTPLVCEGLAHGVASFSLGPCGRGPDFFTRVALFRDWIDGVLNNPGPGPA
In the case of B2, the binding [1] is reported as “binds”, the binding [2] is reported as “binds” and the binding [3] is reported as “binds”. The binding [4] was “binds”.

B3: eosinophil cationic protein (protein, UniProt P12724 28-160)
chain: RPPQFTRAQWFAIQHISLNPPRCTIAMRAINNYRWRCKNQNTFLRTTFANVVNVCGNQSIRCPHNRTLNNCHRSRFRVPLLHCDLINPGAQNISNCTYADRPGRRFYVVACDNRDPRDSPRYPVVPVHLDTTI
In the case of B3, the binding [2] is reported as “binds” and the binding [3] is reported as “binds”.

B4: lysozyme (enzyme, UniProt P61626 19-148)
chain: KVFERCELARTLKRLGMDGYRGISLANWMCLAKWESGYNTRATNYNAGDRSTDYGIFQINSRYWCNDGKTPGAVNACHLSCSALLQDNIADAVACAKRVVRDPQGIRAWVAWRNRCQNRDVRQYVQGCGV
For B4, the binding [5] was “no binding”, the binding [2] was “binds” and the binding [3] was “binds”.

B5: proteinase 3 (enzyme, UniProt P24158 28-248)
chain: IVGGHEAQPHSRPYMASLQMRGNPGSHFCGGTLIHPSFVLTAAHCLRDIPQRLVNVVLGAHNVRTQEPTQQHFSVAQVFLNNYDAENKLNDVLLIQLSSPANLSASVATVQLPQQDQPVPHGTQCLAMGWGRVGAHDPPAQVLQELNVTVVTFFCRPHNICTFVPRRKAGICFGDSGGPLICDGIIQGIDSFVIWGCATRLFPDFFTRVALYVDWIRSTLR
B5 was tested, and the binding [3] was “binds”.

B6: bactericidal/permeability-increasing protein (protein, UniProt P17213 32-487)
chain: VNPGVVVRISQKGLDYASQQGTAALQKELKRIKIPDYSDSFKIKHLGKGHYSFYSMDIREFQLPSSQISMVPNVGLKFSISNANIKISGKWKAQKRFLKMSGNFDLSIEGMSISADLKLGSNPTSGKPTITCSSCSSHINSVHVHISKSKVGWLIQLFHKKIESALRNKMNSQVCEKVTNSVSSELQPYFQTLPVMTKIDSVAGINYGLVAPPATTAETLDVQMKGEFYSENHHNPPPFAPPVMEFPAAHDRMVYLGLSDYFFNTAGLVYQEAGVLKMTLRDDMIPKESKFRLTTKFFGTFLPEVAKKFPNMKIQIHVSASTPPHLSVQPTGLTFYPAVDVQAFAVLPNSSLASLFLIGMHTTGSMEVSAESNRLVGELKLDRLLLELKHSNIGPFPVELLQDIMNYIVPILVLPRVNEKLQKGFPLPTPARVQLYNVVLQPHQNFLLFGADVVYK
In the case of B6, the binding [2] is reported as “no binding”.
